The source gives no read counts; variants with many changes may rest on few reads.
B1: LINE1-mini (parent)
chain: GGCAGAGCUCAACACAGCGUGGCAAAGUGGCUGUGGCUAGACUGCC

Variants of: B1
Assay: self-cleavage, relative activity (ratio to wild type); higher = more cleavage; in vitro, sequencing; the parent is a self-cleaving ribozyme

Variant | self-cleavage
C10U C15G G35A | 0.05
C10U U20A G35C | 0.04
C10U A26C G30A | 0.7
A11C A39G C46U | 0.03
C10U G17A C23U G33U | 0.02
C10U G30C A39C | 0.05
C10U A11U G40U C42A | 0
C10U C23U G35A | 0.06
C10U C18G G19U G21U C23A | 0.34
C10U G19C G21A G44C C45U | 0.01
C10U G19A G27A U28C U34C | 0.2
C10U G19A G30U U34A | 0.13
C10U A14U U28C | 0.21
C10U U20A G21A | 0.28
C10U A12U U28C G33U | 0.03
A11C A12U C18G G21A | 0.02
C10U A12U C18A G35C G36C | 0.01
A11C A26C G33A | 0.03
C10U C15U G35U | 0.03
C10U A39U U43A | 0.02
C10U C13U U34C | 0.01
C10U G33U G44C | 0.02
C10U G30C A41U G44A | 0.02
C10U C18A C23G A25U | 0.06

Variant | self-cleavage
C10U A16C U43G | 0
C10U A12U U20G G22U G40U | 0.01
C10U G35A C37A | 0.02
C10U A14G G29U | 0.17
C10U C23A C45G | 0.27
C10U A14G U32C C42A G44A | 0.02
A11C A12U G21A G29A C42U C46A | 0.02
A11C A39U C42U G44A | 0.01
C10U C13G A14U G29C | 0.02
A11C A12G C13G | 0
A11C C13G G29U C37G C42A C45A | 0
C10U G35U C45A C46U | 0.02
C10U A14C C15G | 0.02
C10U A14C G36A | 0.03
C10U A24U G29U A39U A41U C45A | 0.12
C10U G17C A24U G30A | 0.09
A11C A12G C15A A24C U32G | 0.02
A11C A14C G30C G44U | 0
C10U C18U C31A | 0.1
C10U G17A G19A A24C G30A C31U A41U | 0.06
A11C A25G G30A C37A | 0.02
A11C A14C A24U G27U | 0.01
C10U A16C G29C | 0.19
C10U A12U G44U | 0.03

Variant | self-cleavage
C10U A14C G19C C31U | 0.01
C10U U43A G44U C45G | 0.03
C10U A12G C15A G17U G27U G35U C37G | 0.05
C10U A14C G21A | 0.04
A11C A16C A25G | 0.01
C10U A12U G21U | 0.16
A11C A26C G33C C45G | 0.03
A11C A12C A14G | 0.01
A11C A16U G40A | 0
C10U C15A G19A G30A U32C G36U | 0.06
C10U G27A U38C G40C C42A | 0.26
C10U C31U G33U | 0.01
C10U C45U C46U | 0.15
C10U A16U C23G A41U | 0.03
C10U A16U G19U G40C | 0.02
C10U A16G C18U U34A G36U U43A | 0.12
A11C A41G C45A C46A | 0.02
C10U G29A C42U | 0.08
A11C A14U G21A | 0.03
A11C A12U U38G | 0
C10U C18A G19C U38C | 0.04
C10U C13A G17A C18U U20A A25U G36A C37U | 0.02
C10U A24G A39C A41C C42U | 0.01
C10U A39C U43A | 0.05

Variant | self-cleavage
C10U G30C C37A | 0.02
C10U A26U G36U | 0.02
C10U C23A G44A | 0.19
A11C A12U C13A U38A | 0.05
A11C A12U A26U G40C | 0.01
C10U G22U C23U | 0.24
C10U A14U A26G U28A A41U | 0.05
C10U A41U C46A | 0.05
C10U U34C G44C | 0.06
C10U U34C G44A | 0.04
C10U U32G A39U | 0.05
C10U C13G G21A A25U | 0.12
C10U C18A A41C | 0.02
C10U G17A C42U | 0.03
C10U A26C C45G | 0.11
C10U C15U G19U A25C | 0.43
A11C A16U U28C G30U | 0.01
C10U C13U G21C | 0.02
A11C A12C A14G A16U U20G C23U C31A | 0.01
C10U G29U G33A | 0.03
C10U C15A C31A G33C | 0.02
C10U C37U U38C | 0.01
C10U C31G G36C | 0.03
C10U A14C U20G | 0.03

Variant | self-cleavage
C10U A14U C18U | 0.02
C10U G30U G40A C46A | 0
C10U C18A G27C U28A | 0.23
A11C A12U A39G C42A C46A | 0.01
C10U G19C U32C | 0.09
A11C C13G A25U U32G G40U | 0.02
C10U A12U C42U | 0.09
A11C A24C G33C | 0.01
C10U C18U U32A G40C C42A | 0.1
C10U C13U C15G G17U U28A U32A | 0.04
C10U U34C C42U | 0.02
C10U C18U G19A C42A | 0.02
C10U G22A C23U | 0.17
C10U C23G G27A U28A A41C | 0.02
A11C A16C C31U | 0.07
C10U G19U U20C G22C | 0.06
C10U U34G U38G | 0.05
C10U G17C G33A G35U | 0.02
A11C A16G C46A | 0.05
C10U G21C C23U C45A | 0.09
A11C A16C G29U G35U | 0.02
C10U A16G G19C C23G | 0.67
C10U G19C G22U G30U G36A C46U | 0.01
C10U C15G G44C | 0.03

Variant | self-cleavage
C10U A16C U32C U43A C46U | 0.01
C10U G35C A39G | 0.03
C10U C15U C31U C42U | 0.11
C10U A25U A39G G44C | 0.03
C10U G21U A25G C37U C42G | 0
C10U A26C G44U | 0.08
C10U C23A A24C G30C | 1.01
C10U A25U C31U G35U C37G G40A | 0.01
C10U A12C A41U | 0.01
C10U C18A G22U A24C G33A A39C | 0.01
A11C C13G A14U G30C | 0
C10U A12U A14U | 0.14
C10U G30A G36C C37U U43G C45G | 0.01
C10U G19C U20C C31A U32A | 0.39
C10U A25C G27C C31G A39U G40C | 0.01
C10U C13G G30A | 0.07
C10U A12U U20G C37G | 0
A11C A26U C31U | 0.01
C10U G27A U28A G29A A39G C42U | 0.06
C10U G19A A24U C45A | 0.05
C10U A12U G29C | 0.01
C10U A12G A16U C18G A26G G27A C37G | 0.03
C10U G30A G44U C45A | 0.12
C10U A12C C37G | 0.01

Variant | self-cleavage
C10U A16U C23A A24U A25U C37U | 0.03
C10U U28G G35U | 0.13
C10U G19A G27A G33C C42U | 0.02
C10U C23U G36U | 0.03
C10U A26G G35C G40U | 0.01
C10U G19U U34G U38G | 0
C10U U28C G44C | 0.03
C10U C31G G44A C46U | 0.03
A11C A12G A25U | 0
A11C A12G A25G | 0
C10U C31U U38A | 0.03
A11C A25G U32G U34C G35U | 0.04
A11C A12G G44A | 0.02
C10U G19U G36A U38C A41C | 0.03
C10U G19U G21U | 0.09
C10U G19U G21A | 0.82
C10U U20A C23U G35C | 0.01
C10U U28G A41U | 0.03
C10U U28A G40U | 0.07
C10U G33U C45A | 0.06
A11C A12G G40C | 0.02
C10U G17C G21U U32C G33C A39U | 0.02
A11C A25C A26C U32A | 0.01
